Where two headings read alike, the source gives them in different places.
Target: BRD4 (BDII_E352-M457) (Homo sapiens, UniProt O60885)
Assay: TR-FRET bromodomain binding assay, BRD4 BDII

| Molecule | Ki [nM] | Ki (mean Ki, 4 nM His tagged BRD4 (BDII_E352-M457), 30 nM Alexa647 probe, Ki calculated from IC50, probe Kd and probe concentration) [nM] |
| --- | --- | --- |
| Cc1cc(F)cc(C)c1Oc1ccc(C(C)(C)O)cc1-c1cn(C)c(=O)cc1O[C@H]1CC[C@H](N2C(=O)C(C)(C)N(C)C2C)CC1 (relative stereo) [Example 134, 5-[2-(4-fluoro-2,6-dimethylphenoxy)-5-(2-hydroxypropan-2-yl)phenyl]-1-methyl-4-{[trans-4-(2,3,4,4-tetramethyl-5-oxoimidazolidin-1-yl)cyclohexyl]oxy}pyridin-2(1H)-one] | 9.18 | – |
| Cc1cc(F)cc(C)c1Oc1ccc(C(C)(C)O)cc1-c1cn(C)c(=O)cc1O[C@H]1CC[C@H](NC(=O)CCC(C)(C)O)CC1 [Example 119, N-[trans-4-({5-[2-(4-fluoro-2,6-dimethylphenoxy)-5-(2-hydroxypropan-2-yl)phenyl]-1-methyl-2-oxo-1,2-dihydropyridin-4-yl}oxy)cyclohexyl]-4-hydroxy-4-methylpentanamide] | 6.84 | – |
| Cc1cc(F)cc(C)c1Oc1ccc(C(C)(C)O)cc1-c1cn(C)c(=O)cc1O[C@H]1CC[C@H](N2CC(C)(C)C2=O)CC1 [Example 30, 4-{[trans-4-(3,3-dimethyl-2-oxoazetidin-1-yl)cyclohexyl]oxy}-5-[2-(4-fluoro-2,6-dimethylphenoxy)-5-(2-hydroxypropan-2-yl)phenyl]-1-methylpyridin-2(1H)-one] | 1.93 | – |
| CC(=O)N[C@H]1CC[C@H](Oc2cc(=O)n(C)cc2-c2cc(C(C)(C)O)cnc2Oc2c(C)cc(F)cc2C)CC1 [Example 1, N-(trans-4-{[2′-(4-fluoro-2,6-dimethylphenoxy)-5′-(2-hydroxypropan-2-yl)-1-methyl-6-oxo[1,6-dihydro[3,3′-bipyridine]]-4-yl]oxy}cyclohexyl)acetamide] | 4.9 | – |
| methyl [trans-4-({5-[2-(4-fluoro-2,6-dimethylphenoxy)-5-(2-hydroxypropan-2-yl)phenyl]-1-methyl-2-oxo-1,2-dihydropyridin-4-yl}oxy)cyclohexyl]methylcarbamate [Example 21] | – | 2.17 |
| Cc1cc(F)cc(C)c1Oc1ccc(C(C)(C)O)cc1-c1cn(C)c(=O)cc1O[C@H]1CC[C@H](N2C(=O)C3COCCN3C2=O)CC1 (relative stereo) [Example 126, 2-[trans-4-({5-[2-(4-fluoro-2,6-dimethylphenoxy)-5-(2-hydroxypropan-2-yl)phenyl]-1-methyl-2-oxo-1,2-dihydropyridin-4-yl}oxy)cyclohexyl]tetrahydro-1H-imidazo[5,1-c][1,4]oxazine-1,3(2H)-dione] | 10.2 | – |
| Cc1cc(F)cc(C)c1Oc1ccc(C(C)(C)O)cc1-c1cn(C)c(=O)cc1O[C@H]1CC[C@H](N2CCNC2=O)CC1 [Example 35, 5-[2-(4-fluoro-2,6-dimethylphenoxy)-5-(2-hydroxypropan-2-yl)phenyl]-1-methyl-4-{[trans-4-(2-oxoimidazolidin-1-yl)cyclohexyl]oxy}pyridin-2(1H)-one] | 0.933 | – |
| Cc1cc(F)cc(C)c1Oc1ccc(C(C)(C)O)cc1-c1cn(C)c(=O)cc1O[C@H]1CC[C@H](N2C(=O)N[C@H](C(C)C)C2=O)CC1 [Example 131, (5R)-3-[trans-4-({5-[2-(4-fluoro-2,6-dimethylphenoxy)-5-(2-hydroxypropan-2-yl)phenyl]-1-methyl-2-oxo-1,2-dihydropyridin-4-yl}oxy)cyclohexyl]-5-(propan-2-yl)imidazolidine-2,4-dione] | 3.82 | – |
| CC(=O)N(CCO)[C@H]1CC[C@H](Oc2cc(=O)n(C)cc2-c2cc(C(C)(C)O)ccc2Oc2c(C)cc(F)cc2C)CC1 [Example 54, N-[trans-4-({5-[2-(4-fluoro-2,6-dimethylphenoxy)-5-(2-hydroxypropan-2-yl)phenyl]-1-methyl-2-oxo-1,2-dihydropyridin-4-yl}oxy)cyclohexyl]-N-(2-hydroxyethyl)acetamide] | 5.66 | – |
| COCCN(C(=O)C1(C)CC1)[C@H]1CC[C@H](Oc2cc(=O)n(C)cc2-c2cc(C(C)(C)O)ccc2Oc2c(C)cc(F)cc2C)CC1 [Example 64, N-[trans-4-({5-[2-(4-fluoro-2,6-dimethylphenoxy)-5-(2-hydroxypropan-2-yl)phenyl]-1-methyl-2-oxo-1,2-dihydropyridin-4-yl}oxy)cyclohexyl]-N-(2-methoxyethyl)-1-methylcyclopropane-1-carboxamide] | 6.72 | – |
| Cc1cc(F)cc(C)c1Oc1ccc(C(C)(C)O)cc1-c1cn(C)c(=O)cc1O[C@H]1CC[C@H](NC(=O)C2(C(N)=O)CC2)CC1 [Example 111, N-[trans-4-({5-[2-(4-fluoro-2,6-dimethylphenoxy)-5-(2-hydroxypropan-2-yl)phenyl]-1-methyl-2-oxo-1,2-dihydropyridin-4-yl}oxy)cyclohexyl]cyclopropane-1,1-dicarboxamide] | 4.11 | – |
| Cc1cc(F)cc(C)c1Oc1ccc(C(C)(C)O)cc1-c1cn(C)c(=O)cc1O[C@H]1CC[C@H](N2CCCCCC2=O)CC1 [Example 37, 1-[trans-4-({5-[2-(4-fluoro-2,6-dimethylphenoxy)-5-(2-hydroxypropan-2-yl)phenyl]-1-methyl-2-oxo-1,2-dihydropyridin-4-yl}oxy)cyclohexyl]azepan-2-one] | 1.78 | – |
| Cc1cc(F)cc(C)c1Oc1ccc(C(C)(C)O)cc1-c1cn(C)c(=O)cc1O[C@H]1CC[C@H](NC(=O)C23CCC(NC(=O)OC(C)(C)C)(C2)C3)CC1 (relative stereo) [Example 103, tert-butyl (4-{[trans-4-({5-[2-(4-fluoro-2,6-dimethylphenoxy)-5-(2-hydroxypropan-2-yl)phenyl]-1-methyl-2-oxo-1,2-dihydropyridin-4-yl}oxy)cyclohexyl]carbamoyl}bicyclo[2.1.1]hexan-1-yl)carbamate] | 8.97 | – |
| Cc1cc(F)cc(C)c1Oc1ccc(C(C)(C)O)cc1-c1cn(C)c(=O)cc1O[C@H]1CC[C@H](NC(=O)C23CC(C2)C3)CC1 (relative stereo) [Example 86, N-[trans-4-({5-[2-(4-fluoro-2,6-dimethylphenoxy)-5-(2-hydroxypropan-2-yl)phenyl]-1-methyl-2-oxo-1,2-dihydropyridin-4-yl}oxy)cyclohexyl]bicyclo[1.1.1]pentane-1-carboxamide] | 1.93 | – |
| Cc1cc(F)cc(C)c1Oc1ccc(C(C)(C)O)cc1-c1cn(C)c(=O)cc1O[C@H]1CC[C@H](n2nccc2O)CC1 [Example 114, 5-[2-(4-fluoro-2,6-dimethylphenoxy)-5-(2-hydroxypropan-2-yl)phenyl]-4-{[trans-4-(5-hydroxy-1H-pyrazol-1-yl)cyclohexyl]oxy}-1-methylpyridin-2(1H)-one] | 6.07 | – |
| COCC(C)(C)C(=O)N[C@H]1CC[C@H](Oc2cc(=O)n(C)cc2-c2cc(C(C)(C)O)ccc2Oc2c(C)cc(F)cc2C)CC1 [Example 71, N-[trans-4-({5-[2-(4-fluoro-2,6-dimethylphenoxy)-5-(2-hydroxypropan-2-yl)phenyl]-1-methyl-2-oxo-1,2-dihydropyridin-4-yl}oxy)cyclohexyl]-3-methoxy-2,2-dimethylpropanamide] | 5.55 | – |

More lines, main results first:

| Ki [nM] | Molecule | Ki (mean Ki, 4 nM His tagged BRD4 (BDII_E352-M457), 30 nM Alexa647 probe, Ki calculated from IC50, probe Kd and probe concentration) [nM] |
| --- | --- | --- |
| 11.6 | Cc1cc(F)cc(C)c1Oc1ccc(C(C)(C)O)cc1-c1cn(C)c(=O)cc1O[C@H]1CC[C@H](C(N)=O)CC1 [Example 102, trans-4-({5-[2-(4-fluoro-2,6-dimethylphenoxy)-5-(2-hydroxypropan-2-yl)phenyl]-1-methyl-2-oxo-1,2-dihydropyridin-4-yl}oxy)cyclohexane-1-carboxamide] | – |
| 2.95 | COCC(=O)N[C@H]1CC[C@H](Oc2cc(=O)n(C)cc2-c2cc(C(C)(C)O)ccc2Oc2c(C)cc(F)cc2C)CC1 [Example 53, N-[trans-4-({5-[2-(4-fluoro-2,6-dimethylphenoxy)-5-(2-hydroxypropan-2-yl)phenyl]-1-methyl-2-oxo-1,2-dihydropyridin-4-yl}oxy)cyclohexyl]-2-methoxyacetamide] | – |
| 23.1 | Cc1cc(F)cc(C)c1Oc1ccc(C(C)(C)O)cc1-c1cn(C)c(=O)cc1OC1CCC(C)(N2CCCC2=O)CC1 (stereo not drawn) [Example 34, 5-[2-(4-fluoro-2,6-dimethylphenoxy)-5-(2-hydroxypropan-2-yl)phenyl]-1-methyl-4-{[trans-4-methyl-4-(2-oxopyrrolidin-1-yl)cyclohexyl]oxy}pyridin-2(1H)-one] | – |
| 3.52 | CC(=O)N[C@H]1CC[C@H](Nc2cc(=O)n(C)cc2-c2cc(C(C)(C)O)ccc2Oc2c(C)cc(F)cc2C)CC1 [Example 19, N-[trans-4-({5-[2-(4-fluoro-2,6-dimethylphenoxy)-5-(2-hydroxypropan-2-yl)phenyl]-1-methyl-2-oxo-1,2-dihydropyridin-4-yl}amino)cyclohexyl]acetamide] | – |
| 13.3 | Cc1cc(F)cc(C)c1Oc1ccc(C(C)(C)O)cc1-c1cn(C)c(=O)cc1O[C@H]1CC[C@H](NS(C)(=O)=O)CC1 [Example 46, N-[trans-4-({5-[2-(4-fluoro-2,6-dimethylphenoxy)-5-(2-hydroxypropan-2-yl)phenyl]-1-methyl-2-oxo-1,2-dihydropyridin-4-yl}oxy)cyclohexyl]methanesulfonamide] | – |
| 10.1 | CNC(=O)[C@H]1CC[C@H](Oc2cc(=O)n(C)cc2-c2cc(C(C)(C)O)ccc2Oc2c(C)cc(F)cc2C)CC1 [Example 101, trans-4-({5-[2-(4-fluoro-2,6-dimethylphenoxy)-5-(2-hydroxypropan-2-yl)phenyl]-1-methyl-2-oxo-1,2-dihydropyridin-4-yl}oxy)-N-methylcyclohexane-1-carboxamide] | – |
| 35 | Cc1cccc(C)c1Oc1ccc(C(C)(C)O)cc1-c1cn(C)c(=O)cc1NC1CCN(S(C)(=O)=O)C1 (stereo not drawn) [Example 12, 5-[2-(2,6-dimethylphenoxy)-5-(2-hydroxypropan-2-yl)phenyl]-4-{[1-(methanesulfonyl)pyrrolidin-3-yl]amino}-1-methylpyridin-2(1H)-one] | – |
| 2.11 | CC(=O)N[C@H]1CC[C@H](Oc2cc(=O)n(C)cc2-c2cc(C(C)(C)O)ccc2Oc2c(C)cc(F)cc2C)CC1 [Example 3, N-[trans-4-({5-[2-(4-fluoro-2,6-dimethylphenoxy)-5-(2-hydroxypropan-2-yl)phenyl]-1-methyl-2-oxo-1,2-dihydropyridin-4-yl}oxy)cyclohexyl]acetamide] | – |
